# Data as given in the supplement of paper PMC3334620.
# The full ranking holds about 33,000 sequences; the median of “E-score (-0.5 to 0.5)” is about -0.016, and the highest 2% start at about 0.31. The list shows a part of the results.
# Molecular target: Cst6 (UniProt P40535)
# Experiment: PBM E-score (8-mer binding enrichment) (E-score (-0.5 to 0.5)); higher = stronger / more preferred TF binding; most listed sequences are background and not binding sites
# Settings: protein concentration: 200 nM; construct: GST-DNA-binding domain
# Outline: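 E-scores (a modified Wilcoxon-Mann-Whitney statistic) were assigned by the Universal PBM Analysis Suite to every ungapped eight-base word pooled with its reverse complement. The input came from universal all-10-mer Agilent arrays made double-stranded by primer extension and probed with GST-tagged yeast transcription factors at about 100-200 nM. Fluorescent anti-GST detected bound protein, and masliner normalised the scans.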
row,Sequence,PBM E-score
1,AAGTAGCG,-0.0376
2,CGGTCAAG,-0.175
3,GGCCCCGA,-0.254
4,GAACCAGA,-0.177
5,AGATAGAG,0.00099
6,CAAGTTCC,-0.198
7,AAACACTA,0.214
8,GTATACCA,-0.051
9,AAAAGGGA,-0.0441
10,AAAAAGAT,0.168
11,CTCCCCGC,0.0808
12,AGGAAGTA,-0.215
13,AACATGCG,0.0771
14,CCTAACGA,0.012
15,GTTCCGTA,0.0416
16,ACTAGAAG,-0.0292
17,AGGATGCG,-0.111
18,CGGCTAAA,0.252
19,GACGCGTC,0.151
20,TGGAAGAA,0.0374
21,ATCATGCC,0.162
22,ACTCTACC,-0.0495
23,GGTGGTAA,0.02
24,AACCCAGG,-0.205
25,AGTCGGTA,-0.15

row,Sequence,PBM E-score
1,ATTGCGAA,0.0433
2,GTCAAGTA,-0.054
3,AAAGAGTG,-0.0454
4,CACTGCGC,0.0486
5,GTCCACTA,-0.108
6,AGTAAAAG,0.0899
7,CGAAAGTC,-0.0417
8,CAAAAGTG,0.182
9,CGCTGTCC,-0.129
10,GAGACTCC,-0.162
11,AGGAGAGA,-0.0545
12,AGCCCGGC,-0.107
13,AAAGTACT,-0.0101
14,CCCACAGC,-0.17
15,CATCCACC,0.00989
16,GTAAGAAA,0.181
17,CCAGACCG,-0.0843
18,CATAACCA,0.0109
19,GTGAGTCA,0.137
20,ATTAGTGA,0.175
21,AACGAGTC,-0.0864
22,AGCATTGG,-0.129
23,AGCCTCGC,-0.0857
24,GCGTGGAA,-0.079
25,GTACAAAC,0.0687

row,Sequence,PBM E-score
1,GGCATGTA,0.0329
2,TATGGTAA,0.176
3,ATAATTAG,0.223
4,ACCATGTG,0.0156
5,TCCCATCA,-0.107
6,AAAGCGTC,-0.0266
7,AACCCATA,0.0867
8,GCTCCACC,-0.404
9,ACCCCTCG,-0.243
10,AGCTCAAC,-0.142
11,AGTGACTG,-0.0113
12,ACCGTCGG,-0.194
13,ATCGCCGG,-0.0344
14,GTTTTTAA,0.238
15,ACATGATG,0.118
16,AATTACGG,0.183
17,ATAGAATC,0.139
18,AACTCGGT,-0.0595
19,AATGAAAT,0.37
20,TCTCTGAA,-0.144
21,GCTCTACC,-0.264
22,AAAAAGAA,0.143
23,AGTATCCC,-0.127
24,AACATTGT,0.0101
25,AGCGGCCA,-0.257

row,Sequence,PBM E-score
1,CGATCCCC,-0.302
2,AAAATAGA,0.141
3,ATTCAGTC,0.079
4,AAATCACA,0.00167
5,GATGCTAC,-0.0756
6,CCCGTGCC,-0.12
7,ACGAGAGA,-0.0689
8,ATGATGGC,0.0352
9,AGCTACAA,-0.0193
10,AAAATCTA,0.169
11,AAACTCTA,-0.0037
12,CAGGTTAA,-0.0628
13,CTATGAGA,-0.12
14,AGTGCTGC,0.0129
15,CAGTTATC,-0.0622
16,TATTACCA,0.127
17,CTCCTAGC,-0.216
18,ACGAATAG,-0.0583
19,CCAGTAGG,-0.248
20,ACTCTCCG,-0.0603
21,TCCCGCAA,-0.0348
22,CGTGACGA,0.386
23,ACACTACA,0.168
24,ACGGAGGC,-0.129
25,GGAGTTGA,-0.0935

row,Sequence,PBM E-score
1,GATCACGC,0.263
2,CGAGTCGC,-0.268
3,AAGCGCAT,-0.132
4,ACCAATTA,0.182
5,GACAACAC,0.114
6,TATAGTAA,0.161
7,CCCCCCTC,-0.431
8,TAGTACGA,0.0609
9,TCAGGACA,0.0644
10,CGCGTCTC,-0.0186
11,CATCGCAC,-0.0215
12,GACCGTTA,-0.109
13,GCGGTAGA,-0.173
14,TATACAGA,0.176
15,CGCATACA,0.129
16,ACTCTTAT,0.0844
17,GGCGTTCA,-0.0971
18,ACCTAAAA,0.133
19,ACCCACTG,-0.0695
20,CAGTACCC,-0.136
21,CAAGACGG,-0.0797
22,ACCGAATA,0.0754
23,GTCCCGGA,-0.179
24,ACCATCGT,-0.0803
25,CAGATGGG,-0.141

row,Sequence,PBM E-score
1,CACCATGC,-0.133
2,AGCACAAA,0.174
3,GAGTTTTA,0.122
4,CCTAGTAG,-0.248
5,ATTGATAA,0.179
6,CCCGACGA,-0.173
7,CCTGGTAA,-0.0632
8,CGGCGTTC,0.115
9,GCGGAATA,0.0593
10,GCATGAAC,0.101
11,AGGGGAGA,-0.369
12,AGTGTACA,-0.0207
13,TTTTAAAA,0.187
14,CGCAGTCC,-0.15
15,GAGGCTTA,-0.0817
16,CTTCCAAC,-0.0988
17,GTGGCTTA,-0.00805
18,CGGTAGGC,-0.137
19,CGTAGCAA,0.0803
20,GAGCTTTA,-0.0811
21,GCGGGACC,-0.345
22,TAGACGGA,-0.00256
23,AAGCTGCT,-0.0988
24,ACACGTAG,0.0917
25,CCTCGAGA,-6e-05

row,Sequence,PBM E-score
1,ACCTCACT,0.164
2,ACACATAA,0.237
3,CCCCTTAA,-0.212
4,TCTCGGCA,-0.0951
5,AACGGGAG,-0.0754
6,TCACGCGA,0.0214
7,GCACGCAC,-0.159
8,CTACTGGA,-0.194
9,TCCGTGAA,-0.0755
10,ACGATCGC,0.0847
11,AGCGAACA,0.0447
12,AGGGACAA,-0.0311
13,GTAAAGGA,0.0655
14,CACTTGAG,-0.0276
15,ACCCCCTA,-0.406
16,AGATATCC,0.045
17,AAATGATT,0.294
18,ATGTCAGA,0.221
19,AGGTCTCG,-0.221
20,GTTTCGAA,0.0856
21,AGCCCCCA,-0.351
22,TCCTTGCA,-0.206
23,GTACGAAC,0.216
24,GCAGAACA,0.0461
25,GACCAGAA,-0.119

row,Sequence,PBM E-score
1,ACCAACCG,-0.0437
2,GCGAGGCC,-0.153
3,GCCGGGCC,-0.287
4,ACGAATAA,0.18
5,GGGCCTTA,-0.208
6,ATAACGTA,0.398
7,ATGCTGTG,0.0518
8,CACGAACA,0.182
9,ATGTTTGA,-0.00837
10,TCCTGGCA,-0.183
11,CGCCGGGA,-0.22
12,GCGCTCCC,-0.226
13,CATGTATA,0.0241
14,GCGAATCA,0.139
15,GCTTAGAC,-0.195
16,ATGAGTGG,-0.0978
17,CCAAGGCC,-0.19
18,ACGCGCAT,0.0851
19,CAATAAAG,0.243
20,CCCCTGGA,-0.273
21,TAAGAGCA,-0.032
22,CCGAGGAG,-0.221
23,CGGAGTAG,-0.177
24,AGATAGCT,-0.195
25,GACAATTA,0.157

row,Sequence,PBM E-score
1,ACGAGGCG,0.237
2,ATACTCGG,0.0698
3,AAGAATAC,0.205
4,AGTGTTTC,0.0641
5,TGCTCACA,0.0805
6,AGTTGAAC,-0.0385
7,TGGATGAA,0.0443
8,ACTTACGC,0.214
9,CGCCCCCG,-0.294
10,GACTCTGA,-0.112
11,GTCGGGGA,-0.148
12,AAGGCCCC,-0.217
13,GCAGGCGC,-0.0994
14,ATTCGAAC,0.0877
15,GCGCACGC,-0.136
16,AGGGAGCC,-0.326
17,ACAATCAC,0.122
18,CTGGCTAA,-0.16
19,CAATGGTA,0.0178
